Data as given in the supplement of paper PMC10441789.
The other results are listed elsewhere or left out. Antibody binding of pooled human sera (four to six donors per pool; dilution not stated) to peptides of the Trypanosoma cruzi antigen TSSA on microarrays. Quantile-normalised fluorescence in arbitrary units, mean of duplicate arrays; higher = more binding. No active / inactive call. The uninfected pools are read here as the healthy donors of the same country. The strongest signals lie near the top of the scale (about 60,000).

Each sequence was assayed on pooled sera of uninfected people, Colombia (assay: antibody binding signal (normalised fluorescence) (arbitrary fluorescence units); higher = stronger serum antibody binding to peptide).
Description: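 Microarray of 15-residue peptides over residues 30-55 of Trypanosoma cruzi TSSAII, each with 1 to 10 substitutions at naturally variable positions, probed with one serum pool per country.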

Sequence	antibody binding signal
TPPSGKENKAAAGEA	1410
TPPSGKENKPATGET	771
GTDNKAATGGTPSPS	776
KPATGGAPSPSGASS	122
KDNKPAAGEAPSQSG	247
ENKTAAGETPSQPGA	315
PPSGKDNKTATGGAP	292
DKKTAAGGAPSPSGA	223
GKDNKPAAGGAPSPS	124
TEKKAATGGTPSQSG	1650
PPSGTDKKTAAGGTP	357
STPPSGTEKKTATGE	155
SGTENKTAAGGTPSQ	326
SGTENKPATGGAPSQ	184
TPPSGTDNKTATGGA	286
KAATGETPSQSGASS	197
GTEKKAAAGGAPSPS	138
DKKPATGETPSQPGA	291
NKPAAGEAPSQSGAS	278
GKEKKAAAGEAPSQS	76

Sequence	antibody binding signal
GKENKPAAGGTPSPS	218
GTDNKTATGGAPSQS	182
TDKKAATGGTPSQSG	988
KENKAAAGEAPSQPG	129
GTEKKTATGGTPSQS	820
KEKKTAAGGAPSQPG	189
SSTPPSGTDKKTATG	192
DKKTATGETPSQSGA	128
PSGKEKKPAAGGAPS	164
KKAATGEAPSPSGAS	249
GTENKAATGGTPSPS	479
SGTEKKTATGETPSP	130
TDKKTAAGEAPSQSG	973
TENKPAAGGTPSPSG	420
KDKKPATGETPSQPG	168
KENKPAAGEAPSQSG	109
TPPSGKDKKPATGEA	346
PSGTDNKAAAGETPS	294
SGTDKKTATGEAPSQ	154
GKEKKPAAGETPSQP	157
